{"source": "paper PMC4336329", "about": "(PLoS ONE, 2015)", "note": "The whole screen tested about 310,000 compounds, of which about 14,000 (4.5%) showed an effect of 50% or more. The effect is printed as a negative number. The list shows a part of the results.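 Also: peak tail current of the secondary pulse compared with the same well before compound.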"}
{"target": "human ether-à-go-go-related gene (hERG) potassium channel (human, UniProt Q12809)", "sequence (Q12809 whole entry, looked up)": "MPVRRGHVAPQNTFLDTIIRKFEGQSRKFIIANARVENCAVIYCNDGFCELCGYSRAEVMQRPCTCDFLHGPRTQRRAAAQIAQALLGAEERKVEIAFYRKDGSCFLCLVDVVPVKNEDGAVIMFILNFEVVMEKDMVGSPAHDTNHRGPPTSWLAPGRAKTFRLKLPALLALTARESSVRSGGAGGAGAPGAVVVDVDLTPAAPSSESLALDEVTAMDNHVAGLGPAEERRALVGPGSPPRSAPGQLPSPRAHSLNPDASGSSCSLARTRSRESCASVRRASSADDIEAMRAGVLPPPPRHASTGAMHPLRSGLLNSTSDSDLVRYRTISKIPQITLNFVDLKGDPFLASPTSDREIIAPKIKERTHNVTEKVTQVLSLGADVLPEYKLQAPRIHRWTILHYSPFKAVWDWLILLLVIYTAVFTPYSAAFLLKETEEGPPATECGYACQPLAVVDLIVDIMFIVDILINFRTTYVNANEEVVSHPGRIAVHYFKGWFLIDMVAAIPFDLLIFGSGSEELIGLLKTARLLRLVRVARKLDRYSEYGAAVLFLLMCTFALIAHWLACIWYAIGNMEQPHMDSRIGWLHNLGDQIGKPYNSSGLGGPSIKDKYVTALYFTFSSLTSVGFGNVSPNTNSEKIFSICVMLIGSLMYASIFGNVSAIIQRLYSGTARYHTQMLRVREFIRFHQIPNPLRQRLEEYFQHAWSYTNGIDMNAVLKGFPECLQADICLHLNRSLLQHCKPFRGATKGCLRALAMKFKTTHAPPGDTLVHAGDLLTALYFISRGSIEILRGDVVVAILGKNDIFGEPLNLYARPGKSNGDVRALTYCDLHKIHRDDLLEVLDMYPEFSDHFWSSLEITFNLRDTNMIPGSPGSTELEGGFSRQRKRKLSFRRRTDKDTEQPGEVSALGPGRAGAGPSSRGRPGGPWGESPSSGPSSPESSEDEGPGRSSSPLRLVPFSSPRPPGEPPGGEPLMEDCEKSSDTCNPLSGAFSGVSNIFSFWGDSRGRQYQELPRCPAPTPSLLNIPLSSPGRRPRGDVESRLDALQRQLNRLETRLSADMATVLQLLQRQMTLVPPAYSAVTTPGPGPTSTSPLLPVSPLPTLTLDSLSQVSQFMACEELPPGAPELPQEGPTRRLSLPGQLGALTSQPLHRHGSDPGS", "test": "primary screen, population patch clamp on CHO cells stably expressing hERG", "units": {"hERG current change (%, negative = inhibition) at 10uM": "%"}}
{"smiles": "O=C(N/N=C/c1cccnc1)c1cccc(NC(=O)c2ccc(Cl)cc2)c1", "hERG current change (%, negative = inhibition) at 10uM": 19.3}
{"smiles": "O=C(Cn1c(N2CCN(c3ccccc3)CC2)nc2ccccc21)c1ccccc1", "hERG current change (%, negative = inhibition) at 10uM": -16.1}
{"smiles": "Cc1cccc(NC(=O)CCN2C(=O)c3ccccc3C2=O)n1", "hERG current change (%, negative = inhibition) at 10uM": 3.15}
{"smiles": "CCOc1c(C=C(C#N)C#N)c2ccccc2n1CC", "hERG current change (%, negative = inhibition) at 10uM": 4.25}
{"smiles": "O=C(NCC1CCCO1)c1cc2c([nH]c3ccccc32)c(-c2cccc(Cl)c2)n1", "note": "(stereo not drawn)", "hERG current change (%, negative = inhibition) at 10uM": -20.5}
{"smiles": "CCC(C)NC(=O)Cn1nc(C(F)(F)F)c2c1CCC2", "note": "(stereo not drawn)", "hERG current change (%, negative = inhibition) at 10uM": 1.83}
{"smiles": "CCN(CC)S(=O)(=O)c1ccc(C(=O)O)cc1", "hERG current change (%, negative = inhibition) at 10uM": 20.3}
{"smiles": "Cc1cc[n+](-c2[nH]c(=O)sc2/C=N/N=C(\\[O-])c2ccncc2)cc1C", "hERG current change (%, negative = inhibition) at 10uM": 3.74}
{"smiles": "Cc1cc(C)cc(CC(CC(=O)Nc2ccc(Cl)cc2)C(=O)O)c1", "note": "(stereo not drawn)", "hERG current change (%, negative = inhibition) at 10uM": 18.3}
{"smiles": "Cc1cccc(C(=O)N/N=C/c2ccc3c(c2)OCO3)n1", "hERG current change (%, negative = inhibition) at 10uM": -13.9}
{"smiles": "O=C(Nc1ccc(N2CCN(C(=O)c3cccs3)CC2)cc1)c1ccc(F)cc1", "hERG current change (%, negative = inhibition) at 10uM": -15.3}
{"smiles": "CC(C)c1c(CN(C)C(C)Cc2ccccc2)n(C)n(-c2ccccc2)c1=O", "note": "(stereo not drawn)", "hERG current change (%, negative = inhibition) at 10uM": 0.117}
{"smiles": "CCc1ccc2[nH]c(=O)c(CN(CCN3CCOCC3)C(=O)Nc3ccccc3F)cc2c1", "hERG current change (%, negative = inhibition) at 10uM": -23.1}
{"smiles": "OCc1cccc[n+]1Cc1ccccc1.[Cl-]", "hERG current change (%, negative = inhibition) at 10uM": 8.35}
{"smiles": "CSc1nsc(SC)c1C(=O)Nc1ccc(C(C)(C)C)cc1", "hERG current change (%, negative = inhibition) at 10uM": 7.74}
{"smiles": "Cc1ccc(S(=O)(=O)N(C)Cc2nc(-c3ccncc3)no2)cc1", "hERG current change (%, negative = inhibition) at 10uM": -19.5}
{"smiles": "Cc1cccc(C(C)n2nnc3ccccc32)c1O", "note": "(stereo not drawn)", "hERG current change (%, negative = inhibition) at 10uM": 6.31}
{"smiles": "COc1cc(C(=S)N2CCCC2)ccc1O", "hERG current change (%, negative = inhibition) at 10uM": 18.6}
{"smiles": "CC(Oc1cccc(Cl)c1)C(=O)NCCCCc1ccccc1", "note": "(stereo not drawn)", "hERG current change (%, negative = inhibition) at 10uM": -11.1}
{"smiles": "CN(C)/C=N/c1sc2c(c1C#N)CCC2", "hERG current change (%, negative = inhibition) at 10uM": -3.93}
{"smiles": "CCNCc1nc2cc(OC)c(OC)cc2c(=O)[nH]1", "hERG current change (%, negative = inhibition) at 10uM": -14.6}
{"smiles": "O=c1[nH]c(O)c(C=NC2CCN(Cc3ccccc3)CC2)c(=O)[nH]1", "hERG current change (%, negative = inhibition) at 10uM": -31.6}
{"smiles": "Nc1c(C(=O)NCCN2CCOCC2)c2nc3ccccc3nc2n1-c1cccc(F)c1", "hERG current change (%, negative = inhibition) at 10uM": -33.2}
{"smiles": "CC(=O)Nc1ccc(NC(=O)[C@@H](NC(=O)c2cccc(C)c2)C(C)C)cc1", "hERG current change (%, negative = inhibition) at 10uM": 11}
{"smiles": "O=C(NC1c2ccccc2-c2ccccc21)c1ccco1", "hERG current change (%, negative = inhibition) at 10uM": -8.29}
{"smiles": "COc1ccc(CN(C)Cc2c(O)ccc3cc(Br)ccc23)cc1OC", "hERG current change (%, negative = inhibition) at 10uM": -37.3}
{"smiles": "CC1CCN(S(=O)(=O)c2ccc3c(ccn3CC(=O)O)c2)CC1", "hERG current change (%, negative = inhibition) at 10uM": 14.6}
{"smiles": "Cc1nn(C(C)C(=O)NC2CCCCC2)c(=O)c2nn(-c3ccccc3)c(C)c12", "note": "(stereo not drawn)", "hERG current change (%, negative = inhibition) at 10uM": -26.7}
{"smiles": "CCOC(=O)CNC(=O)CSc1nc(NCc2ccccc2)nc(N(C)C)n1", "hERG current change (%, negative = inhibition) at 10uM": -13.8}
{"smiles": "Cl.c1ccc2c(c1)nc1n2CCN1CCN1CCCC1", "hERG current change (%, negative = inhibition) at 10uM": -3.08}
{"smiles": "O=C(O)c1n[nH]c2c1CCCCC2", "hERG current change (%, negative = inhibition) at 10uM": -23.2}
{"smiles": "COc1cccc(NC(=O)N2CCCC2C(=O)NCc2ccccc2)c1", "note": "(stereo not drawn)", "hERG current change (%, negative = inhibition) at 10uM": 6.71}
{"smiles": "Cc1cccc(-c2nc(CS(=O)CC(=O)NC3CCCC(C)C3C)c(C)o2)c1", "note": "(stereo not drawn)", "hERG current change (%, negative = inhibition) at 10uM": -0.417}
{"smiles": "NC(=O)c1cccnc1Oc1cccc(Cl)c1", "hERG current change (%, negative = inhibition) at 10uM": 11.8}
{"smiles": "O=C(O)CSc1cc(C(=O)c2ccccc2O)cn2c(=O)c3c(-c4ccccc4)csc3nc12", "hERG current change (%, negative = inhibition) at 10uM": -1.71}
{"smiles": "CCOC(=O)c1c(N)sc(C(=O)N(C)C)c1C", "hERG current change (%, negative = inhibition) at 10uM": 16.6}
{"smiles": "O=C(O)CCNc1ccc(NCCC(=O)O)c2c1C(=O)c1ccccc1C2=O", "hERG current change (%, negative = inhibition) at 10uM": 27.8}
{"smiles": "Nc1cc(OC(=O)c2cccs2)nn1S(=O)(=O)c1ccc(F)cc1", "hERG current change (%, negative = inhibition) at 10uM": -4.68}
{"smiles": "Cc1ccccc1CC(=O)Nc1ccc2c(c1)CCC2", "hERG current change (%, negative = inhibition) at 10uM": 18.3}
{"smiles": "O=C(NCC1CC1)c1onc(CSc2ccc(F)c(F)c2)c1C(=O)NCC1CC1", "hERG current change (%, negative = inhibition) at 10uM": -56.1}
{"smiles": "COc1ccc(C(=O)NC2CCSc3ccccc32)cc1S(=O)(=O)N1CCOCC1", "note": "(stereo not drawn)", "hERG current change (%, negative = inhibition) at 10uM": -9.95}
{"smiles": "CCOc1ccc(S(=O)(=O)NCC2CCCO2)cc1NC(=O)c1ccccc1F", "note": "(stereo not drawn)", "hERG current change (%, negative = inhibition) at 10uM": 19.7}
{"smiles": "Cc1ccc2nc(N(CCCN(C)C)C(=O)c3ccc4c(c3)CCCC4)sc2c1.Cl", "hERG current change (%, negative = inhibition) at 10uM": -71.5}
{"smiles": "COC(=O)c1ccccc1NC(=O)C(=O)NCC1CCCO1", "note": "(stereo not drawn)", "hERG current change (%, negative = inhibition) at 10uM": 4.61}
{"smiles": "CNC(=O)NC(=O)COC(=O)CCCSc1nc2ccccc2s1", "hERG current change (%, negative = inhibition) at 10uM": 2.63}
